Cytotoxicity call and growth inhibition call data for 28 compounds are collected here from the antibiotic and cytotoxicity screens of Wong et al. (2023).

The other results are listed elsewhere or left out.

The test system of one assay is HSkMC. Kind of assay: cytotoxicity call (relative viability < 0.9). The following applies: 10 µM.
Another assay has as its system HepG2. Kind of assay: cytotoxicity call (relative viability < 0.9). The following applies: 10 µM.
A further assay deals with S. aureus RN4220. The experiment in a line: growth inhibition call (relative growth <= 0.2). The note with it: 50 µM.

Turning to `COc1ccc(NC(=O)Nc2ccc3c(c2)CC(=O)N([C@@H](C)CO)C[C@@H](C)[C@H](CN(C)C(=O)Nc2ccc(C(F)(F)F)cc2)O3)cc1`, the cytotoxicity call with HSkMC and with HepG2 was “inactive” throughout. In the assay with S. aureus RN4220, the growth inhibition call is “inactive”.
In the case of `C[C@H]1CN([C@@H](C)CO)C(=O)c2cccc(NC(=O)c3cnccn3)c2O[C@@H]1CN(C)Cc1ccc2c(c1)OCO2`, the cytotoxicity call in the assay with HSkMC and with HepG2 was “inactive” in each case. The growth inhibition call in the assay with S. aureus RN4220 is “inactive”.
Regarding `C[C@@H]1CN([C@H](C)CO)S(=O)(=O)c2ccc(C#CC3CCCCC3)cc2O[C@@H]1CN(C)C(=O)Cc1ccncc1`, the cytotoxicity call with HSkMC and in the assay on HepG2 was “inactive” each time. Further, in the assay with S. aureus RN4220, the growth inhibition call is “inactive”.
`O=C1c2cccc(O)c2C(=O)c2c(O)cccc21`: the cytotoxicity call with HSkMC was “inactive”. Moreover, the cytotoxicity call with HepG2 is “active”. Further, the growth inhibition call in the assay with S. aureus RN4220 was “inactive”.
As for `Cc1noc(C)c1NC(=O)Nc1ccc2c(c1)C(=O)N([C@H](C)CO)C[C@@H](C)[C@H](CN(C)Cc1ccc(C(=O)Nc3ccccc3N)cc1)O2`, the cytotoxicity call in the assay with HSkMC and in the assay on HepG2 was “inactive” each time. Also, the growth inhibition call in the assay on S. aureus RN4220 is “inactive”.
`Cn1cnc(CCNC(=O)C[C@@H]2CC[C@H]3[C@@H](COC[C@@H](O)CN3C(=O)Nc3ccc(Cl)cc3)O2)c1`: the cytotoxicity call with HSkMC and in the assay on HepG2 was “inactive” each time. Besides, the growth inhibition call in the assay with S. aureus RN4220 was “inactive”.
As for `C[C@@H]1CN([C@@H](C)CO)C(=O)Cc2cc(NC(=O)Nc3ccc4c(c3)OCO4)ccc2O[C@H]1CN(C)Cc1ccc(C(=O)Nc2ccccc2N)cc1`, the cytotoxicity call in the assay on HSkMC and in the assay with HepG2 was “inactive” in each case. In addition, in the assay with S. aureus RN4220, the growth inhibition call was “inactive”.
Regarding `C[C@H](N)C(=O)O`, the cytotoxicity call in the assay on HSkMC and in the assay on HepG2 was “inactive” each time. Further, the growth inhibition call in the assay on S. aureus RN4220 was “inactive”.
`CC(C)CC#Cc1ccc2c(c1)O[C@@H](CN(C)C(=O)c1cccnc1)[C@@H](C)CN([C@@H](C)CO)S2(=O)=O`: the cytotoxicity call in the assay with HSkMC and with HepG2 was “inactive” throughout. In the assay with S. aureus RN4220, the growth inhibition call was “inactive”.
In the case of `O=C(C[C@@H]1C=C[C@H](NC(=O)c2ccc(F)cc2)[C@@H](CO)O1)NCc1ccncn1`, the cytotoxicity call with HSkMC and in the assay with HepG2 was “inactive” each time. Further, in the assay on S. aureus RN4220, the growth inhibition call is “inactive”.
Take `COc1ccc(C=CC(=O)c2cc(O)ccc2O)cc1`: in the assay with HSkMC, the cytotoxicity call was “inactive”. Moreover, the cytotoxicity call in the assay with HepG2 was “active”. The growth inhibition call in the assay on S. aureus RN4220 is “inactive”.
Turning to `COc1cccc(C(=O)Nc2ccc3c(c2)C(=O)N(C)[C@H]2CC[C@@H](CC(=O)NCCCN4CCOCC4)O[C@H]2CO3)c1`, the cytotoxicity call in the assay with HSkMC and in the assay with HepG2 was “inactive” throughout. In the assay on S. aureus RN4220, the growth inhibition call was “inactive”.
Regarding `CN1CCN(C)C2(CCN(C(=O)c3ccn[nH]3)CC2)C1=O`, the cytotoxicity call in the assay on HSkMC and in the assay on HepG2 was “inactive” each time. Moreover, the growth inhibition call in the assay on S. aureus RN4220 is “inactive”.
As for `C[S+](C)CC[C@H](N)C(=O)O`, the cytotoxicity call in the assay on HSkMC and in the assay with HepG2 was “inactive” each time. Also, the growth inhibition call with S. aureus RN4220 was “inactive”.
For the compound `C[C@@H]1CCCCO[C@H](CN(C)CC2CCCCC2)[C@H](C)CN([C@H](C)CO)C(=O)c2cc(NC(=O)C3CCCCC3)ccc2O1`, the cytotoxicity call in the assay on HSkMC and in the assay on HepG2 was “inactive” each time. Moreover, the growth inhibition call in the assay with S. aureus RN4220 is “inactive”.
As for `COc1ccc(NC(=O)Nc2ccc3c(c2)C(=O)N([C@@H](C)CO)C[C@H](C)[C@@H](CN(C)C(=O)Nc2cccc4ccccc24)OCCCC[C@@H](C)O3)cc1`, the cytotoxicity call in the assay with HSkMC and with HepG2 was “inactive” throughout. The growth inhibition call in the assay on S. aureus RN4220 was “inactive”.
In the case of `O=C1CO[C@H]2CN(S(=O)(=O)c3ccccc3)C[C@@H]2N1`, the cytotoxicity call in the assay with HSkMC and with HepG2 was “inactive” throughout. Also, the growth inhibition call in the assay with S. aureus RN4220 was “inactive”.
On to `COCC(=O)N(C)C[C@@H]1Oc2cc(C#CCC3CCCC3)ccc2S(=O)(=O)N([C@@H](C)CO)C[C@@H]1C`, for which the cytotoxicity call with HSkMC and in the assay on HepG2 was “inactive” each time. Further, the growth inhibition call with S. aureus RN4220 is “inactive”.
`CC(=O)c1ccc(F)c(Cl)c1`: the cytotoxicity call with HSkMC and with HepG2 was “inactive” each time. Further, in the assay on S. aureus RN4220, the growth inhibition call is “inactive”.
In the case of `Cc1ccc(S(=O)(=O)N(C)C[C@@H]2OCCCC[C@H](C)Oc3ccc(NC(=O)Nc4ccccc4)cc3C(=O)N([C@@H](C)CO)C[C@@H]2C)cc1`, the cytotoxicity call with HSkMC and in the assay with HepG2 was “inactive” each time. Besides, in the assay with S. aureus RN4220, the growth inhibition call is “inactive”.
Take `C=CCOC(=O)[C@H]1[C@@H]2C(=O)O[C@@H](c3ccccc3)[C@@H](c3ccccc3)N2[C@@H](c2ccc(OCCOC(=O)[C@@H]3C[C@@H]4C(=O)N[C@@H](Cc5ccccc5)C(=O)N4[C@@H]3c3ccc(O)cc3)cc2)[C@]12C(=O)Nc1ccc(I)cc12`: the cytotoxicity call in the assay with HSkMC and in the assay with HepG2 was “inactive” in each case. In the assay with S. aureus RN4220, the growth inhibition call was “inactive”.
For the compound `C[C@@H]1CN([C@@H](C)CO)S(=O)(=O)c2ccc(C3=CCCC3)cc2O[C@H]1CN(C)C(=O)c1cnccn1`, the cytotoxicity call in the assay on HSkMC and in the assay with HepG2 was “inactive” throughout. Further, the growth inhibition call in the assay on S. aureus RN4220 was “inactive”.
On to `CCN1C(=O)CO[C@H]2CN(C(=O)C3CCOCC3)C[C@@H]21`, for which the cytotoxicity call in the assay on HSkMC and in the assay with HepG2 was “inactive” throughout. For the same compound, the growth inhibition call in the assay on S. aureus RN4220 was “inactive”.
`C[C@@H]1CN([C@@H](C)CO)C(=O)c2cc(NC(=O)Nc3cccc4ccccc34)ccc2O[C@@H](C)CCCCO[C@H]1CN(C)C`: the cytotoxicity call in the assay with HSkMC and in the assay on HepG2 was “inactive” each time. Further, the growth inhibition call in the assay on S. aureus RN4220 is “inactive”.
For the compound `CCS(=O)(=O)NCC[C@H]1CC[C@H](NS(=O)(=O)c2ccccc2C)[C@@H](CO)O1`, the cytotoxicity call in the assay with HSkMC and in the assay with HepG2 was “inactive” throughout. Besides, the growth inhibition call in the assay with S. aureus RN4220 is “inactive”.
With `COc1ccc(NC(=O)Nc2cccc3c2O[C@H](CN(C)Cc2ccc(C(=O)Nc4ccccc4N)cc2)[C@H](C)CN([C@@H](C)CO)C3=O)cc1`, the cytotoxicity call in the assay with HSkMC and in the assay on HepG2 was “inactive” in each case. Also, the growth inhibition call with S. aureus RN4220 was “inactive”.
As to `Nc1ccn([C@@H]2O[C@H](CO)[C@@H](O)C2(F)F)c(=O)n1`, the cytotoxicity call with HSkMC and in the assay with HepG2 was “inactive” in each case. The growth inhibition call in the assay with S. aureus RN4220 is “inactive”.
For the compound `CO[C@H]1CN(C)C(=O)c2cc(NC(=O)NC(C)C)ccc2OC[C@@H](C)N(Cc2ccc(-c3ccccn3)cc2)C[C@H]1C`, the cytotoxicity call in the assay on HSkMC (human skeletal muscle cells) and with HepG2 was “inactive” throughout. For the same compound, the growth inhibition call with S. aureus RN4220 was “inactive”.
